Values marked as one replicate rest on one cluster of the flow cell; about a third of the high ones do not repeat.
System: ATP
Experiment: switch fluorescence ratio, 500 uM ATP over buffer (Cy3 cluster intensity, sum of 5 cycles each) (fold (ratio)); higher = stronger signal-on switching upon ATP binding; sequences stand for … in TCGTCGGCAGCGTCAGATGTGTATAAGAGACAGTTTTTTTTTTTTTTTTTTTTTTTTT…TC
Settings: aptamer strand: ATP DNA aptamer (quencher-CACCTGGGGGAGTATTGCGGAGGAAGG + anchor), 100 nM annealed; ATP concentration: 500 uM; one replicate
Procedure, shortened: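 Values give the fluorescence ratio for each switch-domain sequence, averaged from per-cluster ratios of summed target-cycle to summed buffer-cycle Cy3 intensity. The Cy3-labelled switching-strand clusters sat on a modified Illumina MiSeq flow-cell, were annealed to 100 nM quencher-labelled ATP aptamer, and were imaged in selection buffer, then after 15 min with 500 uM ATP at 22 °C. Five cycles ran with NaOH stripping and re-annealing between them, and clusters outside 100-1000 RFU were excluded.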
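Also: ATP exposure 15 min at 22 °C before imaging.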

Sequence	switch fluorescence ratio
CATCAGTGTT	0.985
AAAGAGTACG	1.02
GGGTCACTAA	1.01
ACTGTCGAAC	1.05
GTTTTCATAG	1.03
GCAAAGTTG	0.981
ATACTTGCAT	1
TATGTGGCTC	0.948
CGTGTGTATA	1.04
CGAAGGTGTC	1.18
ATTGCATGGC	1.05
AAGACCCCAA	1.03
CGTGGTGAAA	0.99
AAATGAGGTA	0.985
CAGTCACAAA	0.978
TACTGCTCGA	1.04
TTGTCTACCA	1.02
TGCGATTATT	1.01
TGAGCAATCG	2.73
AAGGAGTAAA	0.979
CATTTATGGA	0.98
TATTTTAGGC	1.04
GGTTCACCTC	0.953

Sequence	switch fluorescence ratio
CGAATCGCGT	0.984
TTTTGAACTT	1.09
TAAATTAATG	0.95
TGAACATTTC	1.13
GCACTGTTCT	0.995
CGCCACAGAA	1
TGGGGTAGAA	0.994
TGTTCAATGC	1.24
AGATGCTAAA	1.01
TATTATCCCC	1.03
CTAGCTGGGT	0.936
TAACTTACGA	1.32
TCGATTGGG	1.01
CGGATTCTTG	1
ACGTTTTTTC	1.04
GAAGTATAAG	1.03
TGGCACTGCG	1.01
GAATATGCGT	0.95
GACTGGAGAA	1.01
AAGGGTTCTA	1
AAATCAGTCG	1.03
ATGGTGAGAT	0.997
CCGTTTTTCA	1.01

Sequence	switch fluorescence ratio
ATTTTAGTCA	1.03
GAAATAATGA	1
ACAGTGGTAA	1.01
GACCTATTGC	1.02
CATCGATTGG	0.977
CAAAAAAAGT	1
TAAGTATGGA	0.996
TGCTTGGAAT	1.01
GAGTTAATGG	0.986
GCTTTAGATG	0.984
GTACCCTGAC	1.38
TATTCTGAAC	1.02
CGGGTTGCTC	1.01
GAATCACATG	0.993
TTTGGTGCAT	0.997
AATTCCCTTA	0.976
CCGGAAATAA	1.04
AATTTAAGAG	0.939
TAGTTTGGTG	1.02
ATTAACTACG	1.08
TAAATAAACT	0.998
ATTAGCATAG	0.999
GACAAACCAT	1.01

Sequence	switch fluorescence ratio
AAAAGATCAG	1.04
GCCGGGTCGT	0.961
ATTGTTCCGG	1.02
ACATCGCTAA	1.17
TGGGTGTTAG	1.02
ACATTATATC	1.01
TAGGCTCCAG	1.05
CTCTTCCTGC	1.26
ATTTTGTGCC	1.02
GACGCGTAGT	1.09
GGTGCGTCTA	1.04
CGCGCCACGA	1.05
AACGTAGTGG	0.975
AGAGGGCTGA	1.03
TAAACCGTTT	0.992
CATTCAGAGC	0.979
GTAGGCCTCG	0.949
ATAATGCACA	1.07
TAAGCAGCA	1.03
GTGGCCGGGG	0.926
TAATTGGTGA	1.01
CGGCATGTGT	0.993
TAGAATATTT	1.02

Sequence	switch fluorescence ratio
TAGTTTCATT	1
CCAAGTCGT	0.99
CGGTAAAGGT	1.03
CTGTCTGGAC	1
TTGATGAGC	0.964
GTCCAATTCT	0.999
TTTCCTAAAT	0.992
AATTATTGAT	1.01
ATACGGGTAA	0.963
TAGGCGGATC	1.06
CTTGTAAGGG	1.01
ATGCACTTCG	1.04
TAAAAGGTGG	0.964
CGCTCAATTA	1.06
TTGTACGGTC	1.03
TTCATAAACG	1.03
GGCGCACTTA	0.972
TTTGCCCTCT	0.978
ATTGCCGTAT	0.972
ACAATTTTGG	0.992
AAAAGTGCAG	0.994
ACAGGCTACG	1.06
ACGTTCAAGT	1.03

Sequence	switch fluorescence ratio
TCGGGTGTG	1.01
GAGATAACCG	0.959
AGAGGCGAGC	0.952
GTAGCGCTTT	1.01
GCTAACTCTT	1.03
TTAGTATTAT	0.974
CACTTCTCTT	0.994
GTTCCGTAAA	1.38
GTTAGGGAA	1.02
ACGTAGTTT	1.02
TCTGTAAGGA	1.02
AAACATTGGG	1.06
TCACGGCGAC	1.21
GGCCGTTGC	1.03
ACTGGTCCAC	1.09
AGGGGAGGTT	1.01
ATTGTTAAGT	0.944
GTTTGGGCCA	1.02
CGCTAGTGAG	1.05
TTGGAATATC	1.09
GAGGGCCCAC	1.02
TAACAGATTG	1
TCCAAGGAGT	1.01

Sequence	switch fluorescence ratio
ATTCTGAGTT	0.995
TCGGACTTGA	0.932
TGGAACTCTA	0.989
CCTGACGACT	1.63
ATCTAAACAT	0.998
TGATGGAATG	1.02
TTTGCCTCT	0.997
ACGAAGAACT	1.03
CGATCACGC	1.06
CGATCGGGAA	1.02
ATGCCAGCTT	0.992
CAGGCGCGGT	1.08
CTGGGCACTA	1.04
GGGGGTATTC	1.06
TGGCGACAAC	1.15
TGAGCCCAAT	1.02
ATAGACCGTG	0.982
CGACTAATAA	1.44
ATTCATGGC	0.989

— the supplement of paper PMC10126150
